Data as given in publication PMC9574860, “Chemical Toolkit for PARK7: Potent, Selective, and High-Throughput” (Journal of Medicinal Chemistry, 2022).
Among all 7,900 compounds or so, about 400 (5.1%) showed an effect of 50% or more. The list shows a part of the results.

molecular target: Parkinson's disease protein 7 (PARK7/DJ1) (human, UniProt Q99497); assay: primary screen, percent inhibition; read as competition with a fluorescent probe by fluorescence polarization; higher = more effect of the substance; conditions: 100 µM
Sequence (Q99497 whole entry, looked up, the tested form may be a part): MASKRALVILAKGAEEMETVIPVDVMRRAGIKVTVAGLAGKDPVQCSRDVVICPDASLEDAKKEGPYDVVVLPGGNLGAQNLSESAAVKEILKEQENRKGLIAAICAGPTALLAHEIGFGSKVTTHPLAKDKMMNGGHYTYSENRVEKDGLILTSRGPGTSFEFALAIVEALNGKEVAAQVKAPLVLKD
Summary of the method: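 Covalent fragments at 100 μM final were incubated 2 h with 0.2 μM PARK7, then 20 nM probe JYQ-107 added for a further 2 h. Fluorescence polarization read at 480/520 nm; relative FP loss versus reference controls gave remaining enzyme activity.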

SMILES	Inhibition % [%]
CN1CCOC(COc2ccc(B3OC(C)(C)C(C)(C)O3)cc2)C1 (stereo not drawn)	5.14
C=CC(=O)NC(C)c1nnc(C)s1 (stereo not drawn)	4.69
O=C(O)C1CCCCN1C(=O)C=Cc1cncc(F)c1 (stereo not drawn)	6.97
CC(C)c1n[nH]c(=O)o1	3.79
N#CC(=Cc1ccc(-c2ccc(F)cc2)o1)C(N)=O	31.4
O=C1NC(c2ccccc2)C12CCC2 (stereo not drawn)	31.9
Cc1ccc(C(NC(=O)CCl)c2cccs2)cc1 (stereo not drawn)	-0.439
CC1(C)OB(c2ccncc2)OC1(C)C	4.41
CN(C(=O)CCl)c1ccccc1	79.7
Cc1ccn(S(=O)(=O)c2ccc(F)cc2)n1	10.8
COC(=O)c1ccc(C)c(NC(=O)CCl)c1	3.25
CC1(C)OB(c2ccc3ccoc3c2F)OC1(C)C	19.2
C=CC(=O)NC1CCC(c2ccc(F)cc2)C1 (stereo not drawn)	2.34
C=CC(=O)NCCn1ccc2cc(Cl)ccc21	5.28
CC(C)(C)c1ccc(S(=O)(=O)N[C@@H]2COC(=O)C2)cc1	8.26
C=CC(=O)NCCc1ccccn1	9.91
O=c1[nH]c(-c2ccc(O)cc2)no1	11.5
O=C(NCCc1ccc(F)cc1)n1ccnc1	12.7
CC(C)C1NC(=O)C12CCCCC2 (stereo not drawn)	0.71
O=C1N[C@H]2CCN(C(=O)C=Cc3cccnc3)C[C@@H]2CO1	6.39
C=CC(=O)N1CC(Cc2ccsc2)C1	8.28
O=C(CCl)Nc1ccccc1C(=O)Nc1ccccc1	10.5
CC(C)(C)C(=O)Nc1ccc(B2OC(C)(C)C(C)(C)O2)cn1	12
O=C(CCl)Nc1ccc(OCc2ccccc2)cc1	28.9
O=S(=O)(F)c1ccc(-c2cn(Cc3cc(C4CC4)no3)nn2)cc1	3.46
C=CC(=O)NC[C@@H]1CCN(C)[C@H]1c1cccnc1	34

SMILES	Inhibition % [%]
CCN1CCN(c2oc(-c3ccccc3)nc2C#N)CC1	7.4
CC(C)NC(=O)CN(C#N)c1ccccc1	4.98
CS(=O)(=O)C(C#N)=Cc1ccc(F)c(F)c1	3.22
C=CC(=O)Nc1ccc(OC)c(F)c1	4.48
COc1ccc(O)c(C=C(C#N)C(N)=O)c1	17.7
CC(Cl)c1nncn1C.Cl (stereo not drawn)	10.3
CC1CCC(NC(=O)CCl)CC1 (stereo not drawn)	20.5
O=C(CCl)NC(=O)NC1CCCCC1	12.1
Cc1ncc(C=CC(=O)N2CCCC(C(C)N)C2)s1 (stereo not drawn)	10.1
CC1(C)OB(c2ccc3nccnc3c2)OC1(C)C	15.3
CCN(CC)C(=O)c1ccc(NC(=O)CCl)cc1	43.2
CN1C(=O)C(C#N)=C(N)C12CCCC2	9
C=CC(=O)NCC1=CCOCC1	6.41
C=CC(=O)N1CCC(NC(=O)CC2CCCCC2)CC1	6.78
C=CC(=O)NC1CCN(c2ccc(C(F)(F)F)cc2)C1=O (stereo not drawn)	4.89
CSc1cc(C(=O)CCl)ccc1NC(C)=O	5.59
C=CC(=O)NCc1ccnc(C)n1	7.47
Cc1ccc(C=CC(=O)N2CCCS2(=O)=O)o1	21.3
Cc1noc(C)c1S(=O)(=O)Oc1ccc(F)c(F)c1	2.05
Cc1nc(S)c2ccccc2n1	3.7
C=CC(=O)NC1CCCCCC1	10.8
N#Cc1ccc(N2C[C@@H](C(F)(F)F)[C@H](C(N)=O)C2)cn1	4.76
O=C(CCl)Nc1ncc(Cl)cc1Cl	19.3
C=CC(=O)NCC1(c2ccc(F)cc2Cl)CC1	5.77
C=CC(=O)N1CCc2nocc2C1	4.78
Cn1cc(C=C(C#N)C(=O)NCC2CCCO2)cn1 (stereo not drawn)	11.8

SMILES	Inhibition % [%]
C=CC(=O)NCC1CCCCC1	1.16
C=CC(=O)NC(C)(C)C(=O)N1CCCC1	10.4
Cc1nc(C=CC(=O)n2ccccc2=NC(C)C)cs1	8.09
CC1SC(=C(C#N)C(N)=O)N(c2ccc(F)cc2)C1=O (stereo not drawn)	13.1
C=CC(=O)NCc1cc(Cl)c2c(c1)OCCO2	5.45
O=C(CCl)Nc1ccc(F)cc1	25.3
C=CC(=O)N1CCC(CC(=O)N2CCN(CC)CC2)CC1	14.2
CC1(C(=O)O)CCN(C(=O)C=Cc2ccc(Cl)s2)C1 (stereo not drawn)	13.3
N#CN(CC(=O)NCC1CCCO1)c1ccccc1 (stereo not drawn)	8.52
CCc1cccc(N(C#N)CC(=O)N2CCOCC2)c1	5.08
C=CC(=O)NCC1=CCCC1	6.59
Cc1ccc(NC(=O)CCl)cc1F	48.3
Cc1ccc(C=C(C#N)c2nnc3n2CCCCC3)o1	6.39
CC(C)c1nc(CCNc2ccc(C#N)nc2)cs1	9.88
C=CC(=O)Nc1nc2nc(C)cc(C)n2n1	12.8
CC1CN(C(=O)C=Cc2c(Cl)nc3sccn23)CCO1 (stereo not drawn)	4.17
C=CC(=O)N[C@H]1CCO[C@@H]1c1ccnn1C	3.57
CC1(C)C2CC=C(COCC3CO3)C1C2 (stereo not drawn)	3.87
Cc1ccnc2ccc(B3OC(C)(C)C(C)(C)O3)cc12	0.686
CC(CNC(=O)C(C#N)=Cc1ccco1)c1ccsc1 (stereo not drawn)	14.1
COc1ccc(C2=NN(C(=O)CCl)C(c3ccco3)C2)cc1 (stereo not drawn)	5.54
CC(C)CC(=O)Nc1ccc(C(=O)CCl)cc1	3.15
COc1ccc2c(c1)CCN2C(=O)C=Cc1cscn1	9.63
C=CC(=O)N1CCCC(n2ccc(C(=O)NC)n2)C1 (stereo not drawn)	8.31
N#Cc1nccnc1Oc1ccc(F)cc1	3.72
O=C(CCl)NC1CS(=O)(=O)CC1Cl (stereo not drawn)	12

SMILES	Inhibition % [%]
C=CC(=O)NC(C)C1CCC(F)(F)CC1 (stereo not drawn)	5.89
OB(O)c1cc2ccccc2o1	-1.81
O=C1OCCC1Sc1ncnc2sccc12 (stereo not drawn)	6.21
N#Cc1ncn(CCCOc2ccccc2)n1	7.03
C=CC(=O)N1CCCC1c1ccc2c(c1)OCCO2 (stereo not drawn)	12.7
C=CC(=O)N1CC(C)OC2(CCCOC2)C1 (stereo not drawn)	14.5
N#Cc1cccc(-n2cncn2)n1	7.5
c1ccc2c([C@@H]3CO3)cccc2c1	6.12
O=C(Nc1cccc(S(=O)(=O)F)c1)C1(CF)CCC1	95.8
N#Cc1ncn(Cc2ccc(F)cc2)n1	2.87
C=CC(=O)NCC1CN(c2ccc(Cl)cc2)CCO1 (stereo not drawn)	8.73
C=CC(=O)NCCN1CCOC(C)(C)C1	14.1
N#Cc1nccnc1N1CCSSCC1	13.3
O=C(CCCl)Nc1ccccc1	3.48
O=C(CCN1C(=O)CCC1=O)Nc1ccc(F)cc1	-0.378
CC1(C)OB(C2(N)CC2)OC1(C)C.Cl	3.76
CC1CCCCN1C(=O)CCl (stereo not drawn)	28.9
C=CC(=O)NC1COCC1C1CC1 (stereo not drawn)	0.252
C=CC(=O)N1CCCC1c1cccc(Cl)c1 (stereo not drawn)	10.4
CS(=O)(=O)N1CCCC(Cl)C1 (stereo not drawn)	7.94
Cl.O=C(CCl)N1CCN(CC=Cc2ccccc2)CC1	4.23
COCc1ncsc1C(=O)Nc1cccc(S(=O)(=O)F)c1	8.52
C=CC(=O)N1CCCc2cccc(NC(C)=O)c21	5.74
Cc1cn(S(=O)(=O)c2ccc(Cl)c(C)c2)cn1	2.9
O=C(O)C1COCCN1C(=O)C=Cc1ccc(Cl)s1 (stereo not drawn)	13.1
Cn1cc(C(=O)CCl)cn1	77.2

SMILES	Inhibition % [%]
O=C(CCl)N1CCN(c2ncccn2)CC1	91.6
O=C1CCC(=O)N1CCC(=O)N1CCc2ccccc21	9.57
Cc1ccc(N(CCC#N)C(=O)CCl)cc1	47.6
Cc1ccc(CN(C(=O)CCl)C2CC2)cc1	13
CC(C)c1nnnn1CC(=O)Nc1ccc(S(=O)(=O)F)cc1	10.1
Cl.ClCCc1cn[nH]c1	4.09
C=CC(=O)Nc1cnn(CC(=O)N2CCOCC2)c1	34.4
CCC1CN(C2CC(C)OC2=O)CCS1 (stereo not drawn)	5.57
C=CC(=O)N(C)C1CCN(OC)CC1	15.7
N#Cc1cccc(OCC(F)F)n1	1.62
C=CC(=O)N(C)C1CCN(c2cnccn2)CC1	12.9
CN1CN(C(=O)c2c[nH]c(C#N)c2)CC1=O	-4.6
C=CCCS(=O)(=O)NC1CN(c2ccc(F)cc2)C1=O (stereo not drawn)	9.47
CCOc1ccc(S(=O)(=O)n2ccnc2CC)cc1C	2.75
O=C(O)c1ccc2c(=O)[nH]c(S)nc2c1	11.3
C=CC(=O)N1CCOC(C(F)F)C1 (stereo not drawn)	4.48
C=CC(=O)N1CCOCCC1C (stereo not drawn)	10
O=c1onc(-c2ccccn2)n1C1C=CCCC1 (stereo not drawn)	5.08
COc1ccc(CC2CC(=O)N2)cc1 (stereo not drawn)	16.2
CC1(C)OB(c2cc3c(cc2Cl)NC(=O)C3)OC1(C)C	11.3
C=CC(=O)N1CCCC1Cc1cccc(F)c1 (stereo not drawn)	10.4
N#Cc1ccc(NC2CCc3c(O)cccc32)cn1 (stereo not drawn)	6.94
